Results taken from article PMC4336329 (PLoS ONE, 2015).
The whole screen tested about 310,000 compounds, of which about 2,200 (0.71%) showed an effect of 50% or more. Effects have a minus sign here. The list shows a part of the results.

The compounds below were run against human ether-à-go-go-related gene (hERG) potassium channel (human, UniProt Q12809) (assay: primary screen, population patch clamp on CHO cells stably expressing hERG).
Chain of human ether-à-go-go-related gene (hERG) potassium channel (Q12809 whole entry, looked up): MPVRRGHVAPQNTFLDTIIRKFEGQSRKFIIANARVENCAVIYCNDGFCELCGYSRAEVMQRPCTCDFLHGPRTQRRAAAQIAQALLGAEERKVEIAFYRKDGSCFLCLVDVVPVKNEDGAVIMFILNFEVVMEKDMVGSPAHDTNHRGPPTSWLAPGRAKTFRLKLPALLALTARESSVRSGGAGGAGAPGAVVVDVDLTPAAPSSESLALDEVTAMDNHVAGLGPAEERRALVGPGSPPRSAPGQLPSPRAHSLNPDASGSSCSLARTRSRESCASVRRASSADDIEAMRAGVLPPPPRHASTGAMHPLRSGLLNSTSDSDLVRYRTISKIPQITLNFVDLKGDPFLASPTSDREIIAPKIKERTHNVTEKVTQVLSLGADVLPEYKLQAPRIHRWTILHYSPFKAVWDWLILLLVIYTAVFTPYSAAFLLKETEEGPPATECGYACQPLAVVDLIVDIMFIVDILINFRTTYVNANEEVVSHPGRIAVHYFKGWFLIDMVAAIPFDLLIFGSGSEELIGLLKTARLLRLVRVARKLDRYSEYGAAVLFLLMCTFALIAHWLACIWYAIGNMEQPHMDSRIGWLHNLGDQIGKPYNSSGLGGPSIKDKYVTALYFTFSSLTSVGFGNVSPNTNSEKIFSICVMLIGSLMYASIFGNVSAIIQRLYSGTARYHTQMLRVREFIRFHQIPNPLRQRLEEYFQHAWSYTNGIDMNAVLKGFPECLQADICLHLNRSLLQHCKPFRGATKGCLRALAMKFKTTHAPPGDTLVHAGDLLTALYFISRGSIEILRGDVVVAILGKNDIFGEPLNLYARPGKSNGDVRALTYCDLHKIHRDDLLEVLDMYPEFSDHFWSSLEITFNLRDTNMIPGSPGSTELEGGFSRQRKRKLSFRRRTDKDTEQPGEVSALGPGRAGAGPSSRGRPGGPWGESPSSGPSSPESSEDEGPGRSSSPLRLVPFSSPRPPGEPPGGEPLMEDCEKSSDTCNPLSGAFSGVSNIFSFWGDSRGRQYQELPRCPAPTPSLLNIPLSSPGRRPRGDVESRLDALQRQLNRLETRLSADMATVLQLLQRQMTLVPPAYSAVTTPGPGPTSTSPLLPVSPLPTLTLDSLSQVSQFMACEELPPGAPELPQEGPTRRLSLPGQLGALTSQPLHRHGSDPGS

SMILES | hERG current change (%, negative = inhibition) at 1uM
Cc1ccc(NC(=O)c2ccc(S(=O)(=O)N3CCC(C)CC3)cc2)nc1 | 1.5%
Cc1ccccc1CN(c1ccc(C(=O)NCCC2=CCCCC2)cc1)S(C)(=O)=O | -1.37%
COc1ccccc1/C=N/NC(=O)c1nnn(-c2nonc2N)c1CSC1=NCCS1 | 0.888%
CCN1C(=O)[C@H]2[C@H]3[C@H](O)[C@H](O)C/C(=N\OC[C@@H](C)[C@H](OCc4ccccc4)C(C)C)[C@@H]3CC[C@H]2C1=O | 9.08%
C=CCCC(=O)Nc1nc(C)c(-c2csc(Nc3ccccc3OC)n2)s1 | -4.33%
O=C(N/N=C/c1ccccc1F)c1cc2c(ccc3ccccc32)o1 | -1.27%
Cc1ccc(NC(=S)N(Cc2cccs2)Cc2cc3cc(C)cc(C)c3[nH]c2=O)cc1 | 6.02%
CCCCc1ccc(NC(=S)NCc2cccnc2)cc1 | 12%
Cc1nc2ccccn2c1C(=O)NNC(=S)Nc1ccccc1 | 13.3%
O=C1CC2(CCN(C(=O)c3c(F)cccc3Cl)CC2)Oc2ccccc21 | -4.7%
CCO[C@@H]1OC(C(=O)NCc2nc3ccccc3[nH]2)=C[C@H](c2csc3ccccc23)[C@H]1CCCO | -10.7%
CCOC(=S)SCc1cn2ccccc2n1 | 15.5%
O=C1/C(=C\c2ccncc2)CCc2ccccc21 | 2.69%
CCOP(=O)(OCC)C(C#N)=C1SCN(c2ccc(Cl)cc2)CS1 | 11.8%
COc1ccc2[nH]c(C(=O)O)c(NS(=O)(=O)c3ccc(F)cc3)c2c1 | 18%
CCSC(=O)NC1CCCCC1 | 7.54%
NC(=O)CC(NC(=O)Cc1cccc2ccccc12)c1ccc(NCCN2CCCC2)c([N+](=O)[O-])c1 (stereo not drawn) | 1.67%
CC(=O)NS(=O)(=O)c1ccc(NC(=O)CCC2CCCC2)cc1 | 9.2%
CCN1CCSc2ccc(C(=O)NCc3cc(Br)ccc3OC)cc21 | 9.1%
CCOc1ccc(CNC(=O)CCCN2C(=O)C(c3ccccc3)Oc3cccnc32)cc1 (stereo not drawn) | 13.6%
CN(Cc1ccc2c(c1)OCCO2)C(=O)CN1C(=O)NC2(CCCCC2)C1=O | 7.98%
COc1cccc(C(=O)NC(=S)Nc2ccccc2N2CCCC2)c1 | 10.6%

SMILES | hERG current change (%, negative = inhibition) at 1uM
O=C(NNC(=O)c1ccc(O)cc1O)c1ccc(Cl)cc1 | 8.25%
COc1ccccc1C(=O)COC(=O)Cn1c(C)csc1=O | 2.3%
CC(=O)Nc1ccc(/C=C(\C#N)C(=O)NC2CCCCC2C)cc1 (stereo not drawn) | 0.771%
O=C1CC(SC(=NCc2ccc3c(c2)OCO3)Nc2ccccc2)C(=O)N1c1ccccc1 (stereo not drawn) | 8.37%
COc1ccccc1NC(=O)CN1CCN(CC(=O)Nc2ccc(C)c(F)c2)CC1 | -49.1%
COc1ccc(COC(=O)CCS(=O)(=O)c2ccc(C)cc2)cc1 | 24.8%
CCN1CCN(C(C(=O)NC2CCCCC2)c2ccc(Cl)cc2)CC1 (stereo not drawn) | 4.54%
O=C(NC1CCCCNC1=O)c1ccco1 (stereo not drawn) | 8.47%
COc1cc2ccc(=O)oc2c(CC=C(C)C)c1OC | 0.29%
C/C(=N\NS(=O)(=O)c1ccc(C)cc1)c1ccc(Br)s1 | 12.9%
Cc1ccc(S(=O)(=O)Nc2ccc3[nH]c(=O)[nH]c3c2)c(C)c1 | 11.4%
CN(C)C(=S)SCCn1c(N)nc(N(C)C)nc1=O | 2.37%
CCN(CC)S(=O)(=O)c1ccc2c(c1)N(CC(=O)Nc1cccnc1Cl)C(=O)CO2 | 5.06%
O=C(Nc1ccc(C(F)(F)F)cc1)c1ccccc1Br | 14.4%
Cc1ccc2[nH]cc(CCNC(=O)c3ccc([N+](=O)[O-])cc3)c2c1 | 3%
CC1CC(C)CN(S(=O)(=O)c2ccc(C(=O)N(c3ccccn3)C3CCCCC3)cc2)C1 (stereo not drawn) | 6.65%
CCOC(=O)C1CCN(C(=O)c2ccc3c(=O)n4nc(Nc5cc(C)ccc5C)sc4nc3c2)CC1 | 3.92%
CN(C)CCCNC(=O)CC(c1ccccc1)c1ccccc1O (stereo not drawn) | 4.02%
Cc1ccc(C)c(Nc2ncccc2C(=O)NCc2cccs2)c1 | -1.72%
O=C1NN=C(CSc2n[nH]c(=S)s2)CS1 | 19.3%
CN(c1ccccc1C(=O)Nc1ccc2ccccc2c1)S(C)(=O)=O | 6.36%
COc1ccc(-c2csc3nc(C)nc(N4CCC(C)CC4)c23)cc1OC | 10.4%

SMILES | hERG current change (%, negative = inhibition) at 1uM
Cc1cc(C)c(S(=O)(=O)NCc2ccc3c(c2)cc(C)n3C)c(C)c1 | 5.52%
CC(=O)N/C(=C\c1ccccc1)C(=O)OCc1ccc(C)cc1 | -24.6%
O=C(c1ccccc1F)c1cn(CC(=O)N2CCOCC2)c2ccccc12 | 5.13%
COC(=O)[C@@]1(Cc2ccc(F)cc2)[C@H]2c3cc(C(=O)N(C)C)n(CCc4ccc(OC)c(Br)c4)c3C[C@H]2CN1C(=O)c1ccccc1 | 1.81%
CCc1ccccc1NC(=O)Cn1nnc(C(=O)NCc2cccs2)c1N | 11.9%
CCn1c(=O)c(=O)n(CC)c2cc(S(=O)(=O)Nc3ccc(C)cc3)ccc21 | 7.21%
Cn1c(=O)c2c(ncn2Cc2cc(-c3ccccc3)no2)n(C)c1=O | -9.14%
COc1ccc(S(=O)(=O)N2CCCN(CC(=O)Nc3cc(NC(C)=O)ccc3OC)CC2)cc1 | -2.83%
OC(COc1ccccc1CNCc1cccnc1)CN1CCc2ccccc2C1 (stereo not drawn) | -7.56%
NC(=O)c1cc(NC(=O)c2ccc(NS(=O)(=O)c3cccs3)cc2)cc(C(N)=O)c1 | 7.89%
COc1ccc(C2Nc3ccccc3C(=O)N2NS(=O)(=O)c2ccccc2)cc1 (stereo not drawn) | 9.11%
COc1cccc(N(C(=O)CCl)C(C(=O)NCCc2ccccc2)c2cccs2)c1 (stereo not drawn) | 4.64%
CCOC(=O)N1CCN(C(=O)c2ccc3c(=O)n(CCC4=CCCCC4)c(=O)[nH]c3c2)CC1 | 16%
O=C1c2cccnc2Nc2ccccc2N1CCCF | 9.97%
O=S(=O)(c1ccc(Br)s1)N1CCc2ccccc2C1 | 6.12%
C#CCOc1ccc(/C=C2/C(=O)ON=C2C)cc1Cl | 20.2%
CCOc1ccc(N(C)S(=O)(=O)c2ccc(-c3ccc(=O)[nH]n3)s2)cc1 | -6.5%
COc1cc(C(C)=O)ccc1OCCN1CCC(Cc2ccccc2)CC1.O=C(O)C(=O)O | -93.3%
Cc1cc(C)nc(CCNC(=O)c2cc(COc3ccc(F)cc3Cl)on2)n1 | -4.3%
Cc1ccccc1NC1=C/C(=N\S(=O)(=O)c2cccs2)c2ccccc2C1=O | 0.476%
CCCCCCCC(=O)N/N=C(/C)c1c(O)cc(C)oc1=O | -14.8%
CCOC(=O)N1CCN(C(=O)CSc2ccc(C(=O)OC)cc2[N+](=O)[O-])CC1 | 14.8%

SMILES | hERG current change (%, negative = inhibition) at 1uM
S=C(NC1CCCC1)N1CCN(C/C=C/c2ccccc2)CC1 | 5.52%
COc1ccc(C(=O)NCC(=O)NCC(=O)OCC(=O)c2ccc(C)cc2)cc1 | 11.8%
O=[N+]([O-])c1ccc(/C([O-])=C(/C(=S)Nc2ccccc2F)[n+]2ccccc2)cc1 | 1.93%
CCSc1nnc(CNc2ccc(C)cc2)n1C | 9.42%
O=C1CC(NNc2nc3ccccc3s2)C(=O)N1c1ccc(F)cc1 (stereo not drawn) | 13.6%
COc1ccc(S(=O)(=O)NC2CCCCC2)cc1C | 2.78%
CN(C)C(=S)SCC(=O)NC(=O)NC(C)(C)C | 14%
Cc1cccc(C)c1OC(=O)CSc1nnc(-c2ccccc2)o1 | 10.8%
Cc1nnc(SCC(=O)Nc2ccc(Br)cc2)n(N)c1=O | 8.03%
CCCN(CCC)Cc1c(C(=O)N/N=C/c2c[nH]c3ccccc23)nnn1-c1nonc1N | 6.41%
O=C(c1ccc(Cl)cc1)n1cnc2ccccc21 | 8.54%
Cc1ccsc1/C=N\NC(=O)c1cc(C(C)(C)C)[nH]n1 | 6.9%
CCCCN(CCCNC(=O)C1CCN(S(=O)(=O)N2CCOCC2)CC1)c1ccccc1 | -3.94%
CC(=O)Nc1ccccc1C | 11.4%
Cc1cccc(N(C)C(=O)c2cc(S(=O)(=O)N3CCc4ccccc43)cn2C)c1 | 3%
O=C(c1ccco1)N1CCN(c2ncnc3scc(-c4cccs4)c23)CC1 | -36.9%
COc1cc2[nH]c(=O)n(CCC(=O)NCCC(C)C)c(=O)c2cc1OC | 7.96%
C=CCn1c(Cc2ccc(OC)cc2)nnc1SCC(N)=O | 0.195%
CCCN(CCC)c1nc(N(CCC)CCC)[nH]c(=O)n1 | 9.89%
COc1ccc(S(=O)(=O)N2CCCC2CNC(=O)C(=O)NCc2ccc(C)cc2)cc1 (stereo not drawn) | -2.03%
Cc1cc(CNC(=O)c2cc(Br)ccc2Cl)nn1C | 1.23%
